{
  "source": "paper PMC6919601",
  "about": "“Identification of Plasmodium dipeptidyl aminopeptidase allosteric inhibitors by high throughput screening” (PLoS ONE, 2019)",
  "note": "The campaign covered roughly 110,000 compounds. About 230 (0.21%) showed an effect of 50% or more. The list shows a part of the results.",
  "data": [
    {"molecular_target": "DPAP1 (Plasmodium falciparum, UniProt Q8IIJ9)", "sequence (Q8IIJ9 whole entry, looked up)": "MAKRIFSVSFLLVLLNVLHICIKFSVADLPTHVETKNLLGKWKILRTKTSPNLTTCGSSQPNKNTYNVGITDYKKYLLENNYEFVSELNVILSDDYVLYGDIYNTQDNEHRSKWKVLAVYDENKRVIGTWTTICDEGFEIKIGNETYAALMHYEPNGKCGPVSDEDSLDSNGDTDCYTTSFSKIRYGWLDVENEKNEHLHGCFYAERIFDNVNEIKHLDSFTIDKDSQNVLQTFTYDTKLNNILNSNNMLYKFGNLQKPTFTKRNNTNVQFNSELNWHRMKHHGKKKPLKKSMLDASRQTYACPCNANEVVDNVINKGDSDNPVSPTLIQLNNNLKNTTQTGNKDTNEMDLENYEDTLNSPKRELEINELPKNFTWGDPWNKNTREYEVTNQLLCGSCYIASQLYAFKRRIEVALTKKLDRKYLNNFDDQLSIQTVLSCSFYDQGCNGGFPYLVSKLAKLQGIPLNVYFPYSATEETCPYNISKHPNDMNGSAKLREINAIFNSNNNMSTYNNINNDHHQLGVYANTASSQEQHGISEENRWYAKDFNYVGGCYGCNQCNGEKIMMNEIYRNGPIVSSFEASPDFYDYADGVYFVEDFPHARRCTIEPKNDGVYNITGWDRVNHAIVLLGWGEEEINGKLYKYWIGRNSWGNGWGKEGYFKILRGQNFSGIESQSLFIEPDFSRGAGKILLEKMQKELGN", "assay": "primary screen, percent inhibition; read by cleavage of a fluorogenic dipeptide substrate; higher = more effect of the substance", "parameters": "species or system P. falciparum D10 trophozoite lysates; single well", "units": {"% Inhibition @ 10 uM": "%"}, "values": [
      {"compound": "CCC1CCc2nc3sc(C(=O)NC(C)c4ccccc4)c(N)c3cc2C1", "note": "(stereo not drawn);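 also: 30 min substrate incubation versus DMSO and 10 µM JCP410 controls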", "% Inhibition @ 10 uM": -1.47},
      {"compound": "COC(=O)c1cnn2c(C(F)(F)F)cc(C)nc12", "% Inhibition @ 10 uM": 2.9},
      {"compound": "Cc1ccc2nc(O)c3cc(C(=O)NCC4COc5ccccc5O4)sc3c2c1", "note": "(stereo not drawn)", "% Inhibition @ 10 uM": 1.72},
      {"compound": "O=C(NCc1cccs1)C1CCN(S(=O)(=O)c2ccc3[nH]c(-c4ccccc4)nc3c2)CC1", "% Inhibition @ 10 uM": 9.84},
      {"compound": "COc1ccc(Br)cc1/C=C/C(=O)NCC(=O)O", "% Inhibition @ 10 uM": -0.406},
      {"compound": "CCN(Cc1ccccc1)Cc1c(O)ccc2ccccc12", "% Inhibition @ 10 uM": -3.15},
      {"compound": "CCNC(=O)N(Cc1nc(-c2ccc(Cl)cc2)no1)C1CCCCC1", "% Inhibition @ 10 uM": 0.00706},
      {"compound": "COc1ccc2[nH]cc(CCNC(=O)c3ccccc3)c2c1", "% Inhibition @ 10 uM": 3.34},
      {"compound": "C=C(C)[C@@H]1CC=C(CN(C)CC(O)c2ccccc2)CC1", "note": "(stereo partly drawn)", "% Inhibition @ 10 uM": 1.57},
      {"compound": "Cc1ccc(CS(=O)Cc2ccc(C(=O)NCc3cccc(Cl)c3)o2)cc1", "note": "(stereo not drawn)", "% Inhibition @ 10 uM": -3.35},
      {"compound": "O=C(NCc1ccccc1)c1ccc2oc(=O)c(S(=O)(=O)c3ccccc3)cc2c1", "% Inhibition @ 10 uM": 2.12},
      {"compound": "CCOc1ccc(C(C)=O)cc1CN(CC)CC", "% Inhibition @ 10 uM": 11.4},
      {"compound": "Cc1nc(O)c2sc3nc4c(cc3c2n1)COC(C)(C)C4", "% Inhibition @ 10 uM": 18.5},
      {"compound": "CCCOc1ccc(C(=O)Nc2ccc(NC(C)=O)cc2)cc1", "% Inhibition @ 10 uM": 3.53},
      {"compound": "CCCc1[nH]nc2c1C(c1ccc(OC(C)C)c(OCC)c1)C(C#N)=C(N)O2", "note": "(stereo not drawn)", "% Inhibition @ 10 uM": -8.3},
      {"compound": "CCCCNC(=O)c1ccc(CNS(=O)(=O)c2ccc(C)cc2)cc1", "% Inhibition @ 10 uM": 2.35},
      {"compound": "COC(=O)c1nnn(-c2nonc2N)c1CSc1ncccn1", "% Inhibition @ 10 uM": -0.0735},
      {"compound": "c1ccc(-c2nnc(-c3ccccn3)nn2)nc1", "% Inhibition @ 10 uM": -2.65},
      {"compound": "CSc1nc2ccccc2n1CC(=O)NC(c1ccccc1)c1ccccc1", "% Inhibition @ 10 uM": 1.13},
      {"compound": "NC(=O)c1c(NC(=O)c2cccs2)sc2c1CCCCCC2", "% Inhibition @ 10 uM": 7.09},
      {"compound": "CSc1nc(N)c2c3c(sc2n1)CCCCC3", "% Inhibition @ 10 uM": 2.62},
      {"compound": "CC1CCN(CCCNC(=O)CCCc2nnc3n(C)c(=O)c4sccc4n23)CC1", "% Inhibition @ 10 uM": 1.13},
      {"compound": "CCCCOC(=O)CNc1nnc(S)nc1O", "% Inhibition @ 10 uM": -7.52},
      {"compound": "CCC1CCCCN1C(=O)c1cnn(-c2ccc(F)cc2)c1-n1cccc1", "note": "(stereo not drawn)", "% Inhibition @ 10 uM": -4.81},
      {"compound": "CC(C)CC1=NN2C(=O)CC(=O)N=C2S1", "% Inhibition @ 10 uM": 3.82},
      {"compound": "CN(C)c1cc(NC(=O)C23CC4CC(CC(C4)C2)C3)c2ccccc2n1", "% Inhibition @ 10 uM": 16.5},
      {"compound": "COc1ccc(S(=O)(=O)N(CCc2ccccc2)CC(=O)O)cc1OC", "% Inhibition @ 10 uM": -5.5},
      {"compound": "O=C(O)c1ccccc1Sc1c(O)cc(-c2ccccc2)n(-c2ccccc2)c1=O", "% Inhibition @ 10 uM": 3.05},
      {"compound": "COc1ccc2nc3sc(C(=O)N4CCOCC4)cc3cc2c1", "% Inhibition @ 10 uM": 89.7},
      {"compound": "CCC(Sc1nc2cccnc2[nH]1)C(=O)NCc1ccc(C)cc1", "note": "(stereo not drawn)", "% Inhibition @ 10 uM": -1.68},
      {"compound": "CCCCNC(=O)c1nc(C)c(C)nc1C(=O)Nc1ccccc1F", "% Inhibition @ 10 uM": -7.3},
      {"compound": "COCCCNCc1c(C(=O)O)n(Cc2ccc(F)cc2Cl)c2cc(OC)ccc12", "% Inhibition @ 10 uM": 0.711},
      {"compound": "CCCN(Cc1ccoc1)CC1CC1", "% Inhibition @ 10 uM": -5.65},
      {"compound": "Cc1ccc(S(=O)(=O)NCC23C=CC(O2)C2C(=O)N(Cc4ccccc4)C(=O)C23)cc1", "note": "(stereo not drawn)", "% Inhibition @ 10 uM": 1.7},
      {"compound": "CCN1CCC(Nc2cccc(SC)c2)CC1", "% Inhibition @ 10 uM": -3.6},
      {"compound": "CCCC1=C(C(=O)OCC)C(c2cc(Br)cs2)C(C#N)=C(N)O1", "note": "(stereo not drawn)", "% Inhibition @ 10 uM": 6.18},
      {"compound": "Cc1ccc(OCCCCCn2ccnc2)cc1C", "% Inhibition @ 10 uM": -2.78},
      {"compound": "CCN1CCc2c(sc3nc(S)nc(N)c23)C1", "% Inhibition @ 10 uM": 42.8},
      {"compound": "COc1ccc2cc3c(N)nn(C(=O)c4ccc(C(C)(C)C)cc4)c3nc2c1", "% Inhibition @ 10 uM": 14.2},
      {"compound": "O=C(Nc1cccnc1Cl)c1cc2n(n1)C(C(F)(F)F)CC(c1ccc3c(c1)OCO3)N2", "note": "(stereo not drawn)", "% Inhibition @ 10 uM": 4.77},
      {"compound": "O=C(CSCc1c(Cl)cccc1Cl)Nc1ccc2c(c1)C(=O)N(CC1CCCO1)C2=O", "note": "(stereo not drawn)", "% Inhibition @ 10 uM": 2.18},
      {"compound": "CCOCCCNC(=O)c1ccc2nc(-c3ccco3)c(-c3ccco3)nc2c1", "% Inhibition @ 10 uM": 4.85},
      {"compound": "COc1cc(C2C(C#N)=C(N)Oc3[nH]nc(C)c32)ccc1OC(C)C", "note": "(stereo not drawn)", "% Inhibition @ 10 uM": -2.46},
      {"compound": "COc1ccc(-n2c3c(c(=O)[nH]c2=O)C(C(F)(F)F)(C(F)(F)F)NC(Cc2ccccc2)=N3)cc1", "% Inhibition @ 10 uM": 1.72},
      {"compound": "O=C(Cn1cnc2ccccc2c1=O)Nc1nc2c(s1)CCCC2", "% Inhibition @ 10 uM": 3.66},
      {"compound": "Cc1cc(/C=C2\\NC(=O)NC2=O)c(C)n1-c1cccc(C(=O)O)c1", "% Inhibition @ 10 uM": -7.62},
      {"compound": "O=C(CCn1nc(-c2ccc(Cl)cc2)ccc1=O)N1CCOCC1", "% Inhibition @ 10 uM": 1.41},
      {"compound": "O=C(O)CSc1nnc(COc2cccc3cccnc23)n1-c1cccc(C(F)(F)F)c1", "% Inhibition @ 10 uM": 2.74},
      {"compound": "CCOC(=O)CN1CCN(c2ccc(F)cc2)CC1", "% Inhibition @ 10 uM": 0.605},
      {"compound": "Cc1cc(C)c2c(O)nc(SCC(=O)NCCc3ccccc3)nc2n1", "% Inhibition @ 10 uM": -3.21},
      {"compound": "COc1cccc2ccc(=O)n(C)c12", "% Inhibition @ 10 uM": -4.01}
    ]}
  ]
}
